# In the antibiotic and cytotoxicity screens of Wong et al. (2023):
# Some of the results follow.
# Assays:
# HSkMC = human skeletal muscle cells; assay: cytotoxicity call (relative viability < 0.9); settings: 10 µM
# HepG2 = assay: cytotoxicity call (relative viability < 0.9); settings: 10 µM
# S. aureus RN4220 = assay: growth inhibition call (relative growth <= 0.2); settings: 50 µM
Structure (SMILES),cytotoxicity call (HSkMC),cytotoxicity call (HepG2),growth inhibition call (S. aureus RN4220)
CCCCCCCCCCCC(CC1OC(=O)C1CCCCCC)OC(=O)C(CC(C)C)NC=O (stereo not given),inactive,inactive,inactive
O=C(C[C@H]1CC[C@H]2[C@@H](COC[C@@H](O)CN2Cc2ccccc2F)O1)N[C@H]1CCN(Cc2ccccc2)C1,inactive,inactive,inactive
Cc1cc(=O)n(CCO)c(=O)[nH]1,inactive,inactive,inactive
C[C@H](CO)N1C[C@H](C)[C@@H](CN(C)C(=O)Nc2ccc(C(F)(F)F)cc2)Oc2ccc(NS(C)(=O)=O)cc2CC1=O,inactive,inactive,inactive
CCCNC(=O)N(C)C[C@H]1Oc2cc(C#Cc3cccc(F)c3)ccc2S(=O)(=O)N([C@@H](C)CO)C[C@@H]1C,inactive,inactive,inactive
COc1ccc(NC(=O)N(C)C[C@H]2Oc3ccc(NC(=O)Nc4cccc5ccccc45)cc3C(=O)N([C@H](C)CO)C[C@@H]2C)cc1,inactive,inactive,inactive
CO[C@@H]1CN(C)C(=O)c2ccc(NS(=O)(=O)c3cn(C)cn3)cc2OC[C@@H](C)N(CC2CC2)C[C@@H]1C,inactive,inactive,inactive
C[C@@H]1CN([C@@H](C)CO)C(=O)Cc2cc(NC(=O)Nc3ccc4c(c3)OCO4)ccc2O[C@H]1CN(C)Cc1ccc(Oc2ccccc2)cc1,inactive,inactive,inactive
COc1cccc(NC(=O)N(C)C[C@H]2Oc3cc(C#CC4(O)CCCC4)ccc3S(=O)(=O)N([C@H](C)CO)C[C@@H]2C)c1,inactive,inactive,inactive
C[C@@H]1CN([C@@H](C)CO)C(=O)c2cccc(NC(=O)c3cnccn3)c2O[C@H]1CN(C)Cc1ccc2c(c1)OCO2,inactive,inactive,inactive
COc1ccc(CN(C)C[C@H]2Oc3ccc(NC(=O)Nc4cccc5ccccc45)cc3CC(=O)N([C@@H](C)CO)C[C@@H]2C)cc1,inactive,active,inactive
C[C@@H]1CN([C@H](C)CO)C(=O)c2cccc(NC(=O)Nc3cccc4ccccc34)c2O[C@@H]1CN(C)S(=O)(=O)c1cccs1,inactive,active,inactive
C[C@H]1CN([C@@H](C)CO)C(=O)CCCn2nncc2CO[C@H]1CN(C)Cc1ccc2c(c1)OCCN2C,inactive,inactive,inactive
CCCNC(=O)N1CC[C@]2(CC1)CN([C@@H](CO)c1[nH]c3cc(ccc3c12)OC)C(=O)CN1CCOCC1,inactive,inactive,inactive
Cc1ccc(NC(=O)Cn2ccn(CCc3ccc(S(N)(=O)=O)cc3)c(=O)c2=O)cc1F,inactive,inactive,inactive
COc1ccc(NC(=O)N(C)C[C@@H]2Oc3ccc(NC(=O)CCCN(C)C)cc3C(=O)N([C@@H](C)CO)C[C@H]2C)cc1,inactive,inactive,inactive
CC(C)NC(=O)N(C)C[C@@H]1Oc2c(NC(=O)C3CCOCC3)cccc2C(=O)N([C@H](C)CO)C[C@H]1C,inactive,inactive,inactive
COc1ccc(S(=O)(=O)Nc2ccc3c(c2)C(=O)N([C@@H](C)CO)C[C@@H](C)[C@@H](CN(C)S(=O)(=O)c2ccc(OC)cc2)O3)cc1,inactive,inactive,inactive
C[C@H](CO)N1C[C@H](C)[C@@H](CN(C)Cc2ccc(-c3ccccc3)cc2)Oc2c(NC(=O)c3ccc(-c4nccs4)cc3)cccc2C1=O,inactive,inactive,inactive
C[C@@H]1CN([C@H](C)CO)C(=O)c2cc(N(C)C)ccc2O[C@@H]1CN(C)S(C)(=O)=O,inactive,inactive,inactive
C[C@H](CO)N1C[C@H](C)[C@H](CN(C)C(=O)Nc2cccc(F)c2)Oc2ncc(C#CCN(C)C)cc2C1=O,inactive,inactive,inactive
C[C@@H]1CN([C@H](C)CO)C(=O)Cc2cc(NC(=O)Cn3cnnn3)ccc2O[C@H]1CN(C)C(=O)Nc1cccc2ccccc12,inactive,inactive,inactive
Cc1ccc(OC(=O)N(C)C[C@H]2OCc3ccccc3-c3ccccc3C(=O)N([C@H](C)CO)C[C@@H]2C)cc1,inactive,inactive,inactive
Cc1ccc(S(=O)(=O)Nc2ccc3c(c2)C(=O)N([C@@H](C)CO)C[C@H](C)[C@H](CN(C)C(=O)Nc2cccc4ccccc24)OCCCC[C@@H](C)O3)cc1,inactive,inactive,inactive
C[C@@H]1CN([C@@H](C)CO)C(=O)Cc2cc(NC(=O)CCC(F)(F)F)ccc2O[C@@H]1CN(C)C(=O)Nc1ccc(C(F)(F)F)cc1,inactive,inactive,inactive
